PubChem BioAssay AID1347417 (National Center for Advancing Translational Sciences (NCATS), 2020)
The campaign covered roughly 120,000 compounds. About 5,300 (4.4%) were called active. The shares of active, inactive and inconclusive entries below differ from those in the screen. The call rests on the fitted dose curve; in most records, active means well fitted inhibition curve with a large enough effect; inconclusive means small, poorly fitted or top-dose-only effect; inactive means no such curve, though single readings can be large or run the other way. Where the call is inconclusive, the potency comes from a doubtful curve fit.
Potency means the concentration at half of the fitted maximal effect; tags describe the fitted curve by direction and shape.

Test: qHTS Primary assay for Inhibitors of Plasmodium falciparum Dd2 growth in vitro; further: nearly all actives have a fitted effect of over 65% in size;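 on activity, negative = inhibition: plate controls were DMSO vehicle for no effect and reference drug for full effect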
Conditions: P. falciparum Dd2 growth, SYBR Green, 72 h; activity, negative = inhibition: at 28.9 µM (top of the series) unless noted; series mostly up to 28.9 µM
Method in brief: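 Readout: SYBR Green fluorescence, 485 nm excitation, 535 nm emission, after ~16 h lysis at 37C. Before that, Dd2-infected red cells (2.5% hematocrit) grew 72 h with compound, 29 uM top final concentration.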
For `O=C(Nc1cc(Cl)cc(Cl)c1)c1ccc(F)c(S(=O)(=O)NC2CCCCC2)c1`, the Potency was inconclusive: 17.8 µM [inhibitor, single point].
For `O=C1CO[C@H]2CCN(Cc3cccs3)CC[C@@H]2N1Cc1c[nH]c2ccccc12`, the Potency was inconclusive: 15.8 µM [inhibitor, single point].
For `CC(=O)N1CCN(c2cc(-c3noc([C@@H]4CCCN4Cc4ccc(N(C)C)cc4)n3)ccn2)CC1`, the “outcome” value was “inactive”.
For `C#C[C@H]1CN2CC[C@H]1C[C@@H]2COC(=O)NCCC`, the Potency was inconclusive: 3.98 µM [inhibitor, partial curve].
In the case of `Cc1ccc2nc(N3CCN(c4cccc(C)c4C)CC3)c3nncn3c2c1`, the Potency is reported as inconclusive: 7.94 µM [inhibitor, partial curve].
In the case of `COc1ccc(-c2noc([C@@H](C)NS(=O)(=O)c3ccccc3)c2C(=O)O)cc1`, the “activity, negative = inhibition” value is reported as inactive: 11.6% [at 44.1 µM].
For `O=C(CCc1ccccc1)N1CCC[C@H]1c1nc(-c2ccccc2)no1`, the “activity, negative = inhibition” value was inactive: 15.7%.
For `O=C(C1CC1)N1CCn2c(nn(-c3ccc([N+](=O)[O-])cc3)c2=O)C1`, the “activity, negative = inhibition” value was inactive: 0.703% [at 44.1 µM].
With `Cc1ccc(C(=O)N2CCC(CCC(=O)NC3CC3)CC2)cc1` the “activity, negative = inhibition” value was inactive: -1.48%.
For `O=C1NC2(CCCN(Cc3ccccn3)C2)COc2ccccc21` (stereo not drawn), the Potency was active: 0.631 µM.
With `O=C(Cn1cccc1-c1nc(-c2ccc3c(c2)OCO3)no1)N1CCCc2ccccc21` the Potency was inconclusive: 10 µM [inhibitor, partial curve, poor fit].
For `COc1cc(SC)ccc1C(=O)N[C@H]1CCN2C(=O)N(c3ccc(Cl)cc3)C(=O)[C@@H]2C1`, the Potency was inconclusive: 0.224 µM [inhibitor, full curve].
With `CS(=O)(=O)N1CCCC(C(=O)N2CCN(c3ccccc3F)CC2)CCNC(=O)CC1` (stereo not drawn) the “activity, negative = inhibition” value was inactive: 17.6%.
For `COc1ccc(C(=O)N2CCOC(CCCC(C)C)C2)o1` (stereo not drawn), the “activity, negative = inhibition” value was inactive: -22.8%.
For `Cc1ccc(-c2cc(C(=O)Oc3ccccc3Cl)no2)cc1C`, the Potency was inconclusive: 0.126 µM [inhibitor, single point].
With `COc1ccc(C(=O)N2CCCN(c3cc(-c4ccc(F)cc4)[nH]n3)CC2)cc1OC` the Potency was inconclusive: 3.98 µM [inhibitor, single point].
For `COc1cccc(CNC(=O)C(=O)Nc2ccc3nc4n(c(=O)c3c2)CCCCC4)c1`, the “activity, negative = inhibition” value was inactive: -9.13%.
For `Nc1nc(NCCCc2ccco2)cc(C2CC(O)C2)n1` (stereo not drawn), the Potency was inconclusive: 15.8 µM [inhibitor, single point].
In the case of `Cc1ccc(OCC(=O)Nc2cccc(C(=O)OCc3cc(=O)n4nc(C)sc4n3)c2)cc1`, the Potency is reported as inconclusive: 5.62 µM [inhibitor, partial curve].
In the case of `O=C(c1ccsc1)N1CCCC2(C1)Nc1cccnc1NC2=NC1CCCC1` (stereo not drawn), the Potency is reported as inconclusive: 1.26 µM [inhibitor, partial curve, poor fit].
With `O=C(O)c1ccc(NC(=O)c2cn(-c3ccccc3)nc2-c2ccc(Br)cc2)cc1` the Potency was inconclusive: 17.8 µM [inhibitor, single point].
For `CN(Cc1ccc(F)cc1)Cc1cnc(S(C)(=O)=O)n1CCCc1ccccc1`, the Potency was inconclusive: 10 µM [inhibitor, partial curve, poor fit].
With `NC(=O)c1cc2c(nc1N1CCC3(CCCN(CC4CCC4)C3)C1)CCC2` (stereo not drawn) the Potency was inconclusive: 11.2 µM [inhibitor, single point].
In the case of `O=C(c1ccc(Cl)cc1)N1CC2(CCN(Cc3ccncc3)C2)OCc2ccccc21` (stereo not drawn), the Potency is reported as inconclusive: 12.6 µM [inhibitor, single point].
For `Cc1ccc2c(c1C)NC(=O)CC2c1ccc(Cl)cc1Cl` (stereo not drawn), the Potency was inconclusive: 17.8 µM [inhibitor, single point].
In the case of `CCc1ccc(OCC(=O)Nc2ccc(-c3nc4ncccc4o3)cc2)cc1`, the Potency is reported as inconclusive: 0.199 µM [inhibitor, full curve, poor fit].
For `CN(C)C[C@@H]1CN(Cc2ccncc2)C[C@H]1NC(=O)c1cc(F)cc(F)c1`, the “activity, negative = inhibition” value was inactive: -28.6%.
With `COc1cc(CN2CCC3(CC2)Cc2ccccc2CNC3=O)ccc1F` the “activity, negative = inhibition” value was inactive: -4.2%.
With `COCC1CN(Cc2ccncc2)CC12CCNCC2` (stereo not drawn) the “activity, negative = inhibition” value was inactive: -25.8%.
For `COc1cccc(NC(=O)[C@@H]2C[C@@H](c3cccc(C(F)(F)F)c3)N(Cc3cnn(C)c3)C2)c1`, the Potency was inconclusive: 3.16 µM [inhibitor, single point].
In the case of `COc1ccc2[nH]c3c(c2c1)CCNC31CCN(C(=O)c2nccc3ccccc23)CC1`, the “activity, negative = inhibition” value is reported as inactive: -24%.
In the case of `CCC1CCCCN1C(=O)c1nn(-c2ccc(OC)cc2)c(=O)c2c1c1ccccc1n2C` (stereo not drawn), the Potency is reported as inconclusive: 20 µM [inhibitor, partial curve, poor fit].
With `CC1(O)CCCN(Cc2cc3cc4c(cc3nc2-c2ccc(Cl)cc2)OCO4)C1` (stereo not drawn) the Potency was inconclusive: 14.1 µM [inhibitor, partial curve].
With `O=C(C1CCCC1)N1CC2(CCCN(CC3CC3)C2)Cc2ccccc21` (stereo not drawn) the Potency was inconclusive: 7.08 µM [inhibitor, partial curve, poor fit].
For `Cc1ccc(-n2c(SCC(=O)NCc3ccccc3)nc3c([nH]c4ccccc43)c2=O)cc1`, the Potency was inconclusive: 8.91 µM [inhibitor, partial curve].
In the case of `CC1=C[C@@H](CN(C)CCO)[C@H](C(C)C)C[C@H]1Cc1nnc(C)o1`, the Potency is reported as inconclusive: 10 µM [inhibitor, partial curve, poor fit].
For `COCCN1C(=O)c2cccn2CC1CNC(=O)Nc1ccc(OC)cc1` (stereo not drawn), the “activity, negative = inhibition” value was inactive: 6.82%.
For `Cc1ccccc1CCNC(=O)C1CCN(c2nc3ccccc3nc2C(F)(F)F)CC1`, the “activity, negative = inhibition” value was inactive: 18.8%.
With `COc1ccc(C(=O)N2CCOCC3(CN(Cc4ccccc4)C3)C2)c(OC)n1` the Potency was active: 0.891 µM.
For `O=C(NCC1CCN(Cc2cccc(Cl)c2)CC1)c1cc2ccc3cccnc3c2[nH]1`, the Potency was active: 7.94 µM.
In the case of `COc1ccccc1N1CCN(C(=O)Cn2ccn3nc4c(c3c2=O)CCCCC4)CC1`, the “outcome” value is reported as “inactive”.
For `F[C@@H]1CN(Cc2cnc3ccccc3c2)C[C@@H]1OCc1nc2ccccc2[nH]1`, the Potency was inconclusive: 8.91 µM [inhibitor, partial curve].
With `C#CCNC(=O)CC[C@@H]1CNC(=O)[C@@H]2C[C@H](NC(=O)Nc3cccc(Cl)c3)CN12` the Potency was inconclusive: 11.2 µM [inhibitor, partial curve].
In the case of `Cc1ccc(C)c(N2CCN(C(=O)CCn3c(=O)c4cccn4c4cccnc43)CC2)c1`, the “outcome” value is reported as “inactive”.
With `Cc1nc2scc(CC(=O)NC3CC3)n2c(=O)c1-c1cc(C)n(-c2ccc(C(C)C)cc2)n1` the Potency was inconclusive: 1.12 µM [inhibitor, partial curve, poor fit].
In the case of `COc1ccccc1CNC(=O)Cn1c(=O)oc2cc(S(=O)(=O)NCc3ccccc3)ccc21`, the Potency is reported as inconclusive: 8.91 µM [inhibitor, single point].
In the case of `COc1ccccc1NC(=O)Cn1c(=O)n(Cc2ccccc2)c(=O)c2c3c(sc21)CN(C(C)=O)CC3`, the “activity, negative = inhibition” value is reported as inactive: -9.84%.
In the case of `Cc1cc(C)nc(-n2nc(C)c3c2NC(=O)CC3c2cc(F)ccc2F)n1` (stereo not drawn), the Potency is reported as inconclusive: 10 µM [inhibitor, partial curve].
In the case of `Cc1cc(C)c(S(=O)(=O)NCCn2c(C)cnc2C2CCC2)cc1C`, the Potency is reported as active: 3.55 µM.
In the case of `Nc1nonc1C(=O)NCCNCc1ccc(Cl)c(Cl)c1`, the Potency is reported as inconclusive: 10 µM [inhibitor, partial curve].
With `COc1ccc(C2Cn3nnc(-c4noc(COc5ccccc5)n4)c3CO2)cc1` (stereo not drawn) the Potency was inconclusive: 1.12 µM [inhibitor, partial curve, poor fit].
In the case of `CC(C)CCN1CCCCC12Cc1ccccc1CNC2=O` (stereo not drawn), the Potency is reported as inconclusive: 6.31 µM [inhibitor, partial curve, poor fit].
For `CC(C)c1nnc(C2CN(C(=O)Cc3ccccc3)CC23CCOCC3)o1` (stereo not drawn), the “activity, negative = inhibition” value was inactive: 22.5%.
In the case of `COCCN1Cc2ccc(NCC(C)C)nc2C(C)(C(=O)Nc2ccncc2)C1` (stereo not drawn), the Potency is reported as inconclusive: 0.562 µM [inhibitor, full curve, poor fit].
For `CNC(=O)[C@@H]1CN(C(=O)c2cccc(C#N)c2)C[C@H]1COC`, the “activity, negative = inhibition” value was inactive: 0.0811%.
For `CN1CC(=O)N(C2CCCNC2)Cc2c(NCc3ccc4c(c3)OCO4)ncnc21` (stereo not drawn), the “activity, negative = inhibition” value was inactive: -27.4%.
In the case of `CC(C)c1ccc2c(c1)-c1ccccc1S(=O)(=O)N2CC(=O)N1CCCCC1`, the Potency is reported as inconclusive: 14.1 µM [inhibitor, single point].
In the case of `CCOc1ccc(C(=O)N2CCC(Cc3nc(-c4cccc(OC)c4)no3)CC2)cc1`, the Potency is reported as inconclusive: 17.8 µM [inhibitor, single point].
With `Cc1ccc(CNC(=O)N2CCCN(S(=O)(=O)c3ccccc3)CCC(=O)NCC2)cc1` the Potency was inconclusive: 20 µM [inhibitor, single point].
For `Cc1oc(C(O)c2ccccc2F)nc1C(=O)Nc1ccc(C(=O)Nc2ccccc2)cc1` (stereo not drawn), the Potency was inconclusive: 7.94 µM [inhibitor, partial curve, poor fit].
For `Cn1cnc(S(=O)(=O)N2CCCOCCNC(=O)[C@@H]3CCC[C@@H]32)c1`, the Potency was inconclusive: 0.501 µM [inhibitor, full curve, poor fit].
For `COC[C@H]1CCCN1C(=O)C[C@@H]1O[C@H](CNS(=O)(=O)c2ccc(Cl)cc2)[C@@H](O)[C@H]1O`, the “activity, negative = inhibition” value was inactive: -0.791%.
With `COCc1nc(C2CCCN(C(=O)C3CC3)C2)no1` (stereo not drawn) the “activity, negative = inhibition” value was inactive: 51.5%.
In the case of `CNc1nc2c(c(C(=O)N3CCCC3)n1)CN(C(=O)C1CC(C(C)C)=NO1)CC2` (stereo not drawn), the “activity, negative = inhibition” value is reported as inactive: 11.4%.
For `O=C(O)C(c1cccc2c1OCC2)N1CCCN(c2ncccn2)CC1` (stereo not drawn), the “activity, negative = inhibition” value was inactive: -18.4%.
With `CC(=O)NC1CC2(CCN(C(=O)Cc3ccc(O)cc3)CC2)c2ccccc21` (stereo not drawn) the “activity, negative = inhibition” value was inactive: 1.53%.
For `CCCN(C)C(=O)c1ccc(-c2nnc3ccc(NC(=O)C4CCC4)cn23)cc1`, the Potency was inconclusive: 1.78 µM [inhibitor, partial curve, poor fit].
With `CCCNC(=O)N[C@@H]1C[C@H](Cn2cc(C3CC3)nn2)[C@@H](O)[C@H]1O` the “activity, negative = inhibition” value was inactive: -1.29% [at 44.1 µM].
